Source: the supplement of paper PMC11741623
Some of the results follow. Interaction screen of human proteins with wild-type SARS-CoV-2 proteins by split-DHFR complementation in yeast, 1 µg/mL methotrexate. Value = fitness of the pair (three or more lineages) minus that of the viral protein without a human partner, on a scale set by negative (0) and fused positive (1) controls, mean of up to three cultures; higher = more likely to interact. Active = false discovery rate below 0.05 (one-sided t-test) in at least one culture. Nearly all pairs are not hits, and differences among them are mostly noise (correlation between cultures about 0.3); most hits were seen in one culture only. Human sequences are the Swiss-Prot entries looked up by gene name; the clone may be another isoform. NSP2 values were corrected by the authors for a growth advantage. Listed are human proteins with a hit and a random twelfth of the others.

B1: CORO1B, Q9BR76 (protein)
chain: MSFRKVVRQSKFRHVFGQPVKNDQCYEDIRVSRVTWDSTFCAVNPKFLAVIVEASGGGAFLVLPLSKTGRIDKAYPTVCGHTGPVLDIDWCPHNDEVIASGSEDCTVMVWQIPENGLTSPLTEPVVVLEGHTKRVGIIAWHPTARNVLLSAGCDNVVLIWNVGTAEELYRLDSLHPDLIYNVSWNHNGSLFCSACKDKSVRIIDPRRGTLVAEREKAHEGARPMRAIFLADGKVFTTGFSRMSERQLALWDPENLEEPMALQELDSSNGALLPFYDPDTSVVYVCGKGDSSIRYFEITEEPPYIHFLNTFTSKEPQRGMGSMPKRGLEVSKCEIARFYKLHERKCEPIVMTVPRKSDLFQDDLYPDTAGPEAALEAEEWVSGRDADPILISLREAYVPSKQRDLKISRRNVLSDSRPAMAPGSSHLGAPASTTTAADATPSGSLARAGEAGKLEEVMQELRALRALVKEQGDRICRLEEQLGRMENGDA
B2: GSTK1, Q9Y2Q3 (protein)
chain: MGPLPRTVELFYDVLSPYSWLGFEILCRYQNIWNINLQLRPSLITGIMKDSGNKPPGLLPRKGLYMANDLKLLRHHLQIPIHFPKDFLSVMLEKGSLSAMRFLTAVNLEHPEMLEKASRELWMRVWSRNEDITEPQSILAAAEKAGMSAEQAQGLLEKIATPKVKNQLKETTEAACRYGAFGLPITVAHVDGQTHMLFGSDRMELLAHLLGEKWMGPIPPAVNARL
B3: CYP11B1, P15538 (protein)
chain: MALRAKAEVCMAVPWLSLQRAQALGTRAARVPRTVLPFEAMPRRPGNRWLRLLQIWREQGYEDLHLEVHQTFQELGPIFRYDLGGAGMVCVMLPEDVEKLQQVDSLHPHRMSLEPWVAYRQHRGHKCGVFLLNGPEWRFNRLRLNPEVLSPNAVQRFLPMVDAVARDFSQALKKKVLQNARGSLTLDVQPSIFHYTIEASNLALFGERLGLVGHSPSSASLNFLHALEVMFKSTVQLMFMPRSLSRWTSPKVWKEHFEAWDCIFQYGDNCIQKIYQELAFSRPQQYTSIVAELLLNAELSPDAIKANSMELTAGSVDTTVFPLLMTLFELARNPNVQQALRQESLAAAASISEHPQKATTELPLLRAALKETLRLYPVGLFLERVASSDLVLQNYHIPAGTLVRVFLYSLGRNPALFPRPERYNPQRWLDIRGSGRNFYHVPFGFGMRQCLGRRLAEAEMLLLLHHVLKHLQVETLTQEDIKMVYSFILRPSMFPLLTFRAIN
B4: VSIG2, Q96IQ7 (protein)
chain: MAELPGPFLCGALLGFLCLSGLAVEVKVPTEPLSTPLGKTAELTCTYSTSVGDSFALEWSFVQPGKPISESHPILYFTNGHLYPTGSKSKRVSLLQNPPTVGVATLKLTDVHPSDTGTYLCQVNNPPDFYTNGLGLINLTVLVPPSNPLCSQSGQTSVGGSTALRCSSSEGAPKPVYNWVRLGTFPTPSPGSMVQDEVSGQLILTNLSLTSSGTYRCVATNQMGSASCELTLSVTEPSQGRVAGALIGVLLGVLLLSVAAFCLVRFQKERGKKPKETYGGSDLREDAIAPGISEHTCMRADSSKGFLERPSSASTVTTTKSKLPMVV

Target: SARS-CoV-2 E
Assay: yeast fitness gain over the viral ORF with no human partner (scaled fitness); higher = more likely to interact
Experimental: (§1)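 Split mouse DHFR complementation in pooled diploid yeast: human ORFeome clones carry one fragment and viral ORFs the other; barcoded lineages compete in 1 µg/mL methotrexate and fitness is read by barcode sequencing in up to three cultures.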

Binder	yeast fitness gain
B1	inactive: -0.000873
B2	inactive: 0.016
B3	inactive: 0.0746
B4	inactive: 0.0517

Target: SARS-CoV-2 M
Assay: as above
Experimental: as §1

Binder	yeast fitness gain
B1	inactive: 0.0255
B2	inactive: 0.052
B3	inactive: 0.034
B4	inactive: 0.0164

Target: SARS-CoV-2 N
Assay: as above
Experimental: as §1

Binder	yeast fitness gain
B1	inactive: 0.0615
B2	inactive: 0.0817
B3	inactive: 0.044

Target: SARS-CoV-2 NSP1
Assay: as above
Experimental: as §1

Binder	yeast fitness gain
B1	inactive: 0.0429
B3	inactive: -0.00161
B4	inactive: -0.042

Target: SARS-CoV-2 NSP10
Assay: as above
Experimental: as §1

Binder	yeast fitness gain
B1	inactive: 0.0326
B2	inactive: -0.094
B3	inactive: 0.0286
B4	inactive: -0.0192

Target: SARS-CoV-2 NSP12
Assay: as above
Experimental: as §1

Binder	yeast fitness gain
B1	inactive: 0.0212
B2	inactive: -0.0269
B3	inactive: 0.0433
B4	inactive: 0.0429

Target: SARS-CoV-2 NSP13
Assay: as above
Experimental: as §1

Binder	yeast fitness gain
B1	inactive: 0.0394
B2	inactive: 0.0835
B3	active: 0.0824
B4	inactive: 0.00757

Target: SARS-CoV-2 NSP14
Assay: as above
Experimental: as §1

Binder	yeast fitness gain
B1	inactive: -0.0513
B2	inactive: 0.0252
B3	inactive: -0.026

Target: SARS-CoV-2 NSP15
Assay: as above
Experimental: as §1

Binder	yeast fitness gain
B1	inactive: 0.011
B2	inactive: -0.0449
B3	inactive: -0.0147

Target: SARS-CoV-2 NSP16
Assay: as above
Experimental: as §1

Binder	yeast fitness gain
B1	inactive: -0.00644
B3	inactive: -0.0552

Target: SARS-CoV-2 NSP2
Assay: as above
Experimental: as §1

Binder	yeast fitness gain
B1	inactive: -0.105
B2	inactive: -0.112
B3	inactive: -0.12
B4	inactive: 0.0301

Target: SARS-CoV-2 NSP4
Assay: as above
Experimental: as §1

Binder	yeast fitness gain
B1	inactive: -0.0358
B2	inactive: 0.156
B3	inactive: -0.0244

Target: SARS-CoV-2 NSP5
Assay: as above
Experimental: as §1

Binder	yeast fitness gain
B1	inactive: 0.0093
B2	inactive: 0.0807
B3	inactive: -0.00317
B4	inactive: -0.0232

Target: SARS-CoV-2 NSP6
Assay: as above
Experimental: as §1

Binder	yeast fitness gain
B1	inactive: -0.00141
B2	inactive: -0.0223
B3	inactive: -0.0085
B4	inactive: 0.00298

Target: SARS-CoV-2 NSP7
Assay: as above
Experimental: as §1

Binder	yeast fitness gain
B1	inactive: 0.0158
B2	inactive: 0.0236
B3	inactive: -0.017

Target: SARS-CoV-2 NSP8
Assay: as above
Experimental: as §1

Binder	yeast fitness gain
B1	inactive: 0.0623
B3	inactive: 0.032
B4	inactive: -0.51

Target: SARS-CoV-2 NSP9
Assay: as above
Experimental: as §1

Binder	yeast fitness gain
B1	inactive: -0.0105
B3	inactive: 0.0653

Target: SARS-CoV-2 ORF10
Assay: as above
Experimental: as §1

Binder	yeast fitness gain
B1	inactive: 0.0121
B2	inactive: 0.0144
B3	inactive: -0.00707

Target: SARS-CoV-2 ORF3A
Assay: as above
Experimental: as §1

Binder	yeast fitness gain
B1	inactive: 0.029
B2	inactive: -0.0925
B3	inactive: 0.036

Target: SARS-CoV-2 ORF3B
Assay: as above
Experimental: as §1

Binder	yeast fitness gain
B1	inactive: 0.00637
B2	inactive: 0.00626
B3	inactive: -0.00123
B4	inactive: -0.055

Target: SARS-CoV-2 ORF6
Assay: as above
Experimental: as §1

Binder	yeast fitness gain
B1	inactive: 0.00421
B2	inactive: 0.018
B3	inactive: -0.000161
B4	inactive: -0.0635

Target: SARS-CoV-2 ORF7A
Assay: as above
Experimental: as §1

Binder	yeast fitness gain
B1	inactive: -0.0247
B2	inactive: 0.105
B3	inactive: 0.0257
B4	inactive: -0.0948

Target: SARS-CoV-2 ORF7B
Assay: as above
Experimental: as §1

Binder	yeast fitness gain
B1	inactive: 0.025
B2	inactive: -0.0104
B3	inactive: 0.0145
B4	inactive: -0.0515

Target: SARS-CoV-2 ORF8
Assay: as above
Experimental: as §1

Binder	yeast fitness gain
B1	inactive: -0.0105
B2	inactive: 0.0151
B3	inactive: -0.0261

Target: SARS-CoV-2 ORF9B
Assay: as above
Experimental: as §1

Binder	yeast fitness gain
B1	inactive: 0.0077
B2	inactive: 0.00752
B3	inactive: -0.00131
B4	inactive: -0.0334

Target: SARS-CoV-2 ORF9Bwu (the 73-codon ORF)
Assay: as above
Experimental: as §1

Binder	yeast fitness gain
B1	inactive: 0.0495
B3	inactive: 0.0106
B4	inactive: -0.0218

Target: SARS-CoV-2 S
Assay: as above
Experimental: as §1

Binder	yeast fitness gain
B1	inactive: 0.0214
B2	inactive: -0.0888
B3	inactive: 0.0773
B4	inactive: -0.295
